Out of some 110,000 compounds screened, about 40 (0.04%) were called active. This list was built around the results that the source calls inconclusive (neither active nor inactive); the mix of calls is not that of the screen. Calls follow the shape of the dose curve; as a rule, active = well fitted curve in the direction sought with a large enough effect in the signal ratio (not every such curve was filed as active); inconclusive = small, poorly fitted or top-dose-only effect, or a change in a side signal; inactive = flat fitted curve, though single readings scatter; the % refers to the signal ratio. Potencies of inconclusive entries are doubtful fits and often do not repeat.
Experiment: IkB Signaling;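 as to IkBa stabilization activation: 0% = basal untreated cells and 100% = reference inhibitor full response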
Conditions: ABC-DLBCL IkBa-CBG/CBR dual luciferase ratio (green luciferase fused to IkBa over red control in OCI-Ly3 lymphoma cells), 4 h; IkBa stabilization activation: at 57.1 µM (top of the series), scaled: untreated 0%, proteasome inhibitor 100% unless noted
How it was run: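 In this assay, an IκBα–CBG68 fusion accumulates when IKK-driven degradation is blocked; native CBR normalizes for cell number. OCI-Ly3 cells were treated 4 h with compound and doxycycline, then green and red light read after Chroma-Glo addition.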
In the case of CC(C)(C)c1ccc(S(=O)(=O)/C=C\C#N)cc1, the IkBa stabilization activation is reported as inconclusive: -0.806% [signal inhibitor] and the Potency is reported as inconclusive: 3.16 µM [signal inhibitor, partial curve].
For COc1ccccc1N1CCN(C(=O)c2cnn(C(C)(C)C)c2C2CCN(C(=O)OC(C)(C)C)CC2)CC1, the “IkBa stabilization activation” value was inactive: -1.66%.
In the case of CCCC(=O)Nc1cccc(-c2nc3ncccc3o2)c1, the IkBa stabilization activation is reported as inconclusive: -0.604% [signal inhibitor].
In the case of CCOC(=O)C(C)Sc1nc2c(cnn2-c2ccc(C)cc2)c(=O)[nH]1 (stereo not given), the “IkBa stabilization activation” value is reported as inactive: -0.526%.
For Cc1ccc(-c2nc(CCNC(=O)C(=O)Nc3ccc(F)cc3F)cs2)cc1, the Potency was inconclusive: 5.01 µM [signal inhibitor].
In the case of COc1ccccc1CNC(=O)CCCN1C(=O)CCn2nc(-c3cn(C)c4ccccc34)cc21, the IkBa stabilization activation is reported as inconclusive: 1.21% [signal inhibitor].
In the case of CCc1ccc(-c2ccc(C(=O)O)cc2)nc1, the IkBa stabilization activation is reported as inconclusive: 8.21% [signal inhibitor].
With C=CCOc1ccccc1/C=c1\sc2nc(=O)c(C)nn2c1=O the IkBa stabilization activation was inconclusive: 7.63% [signal inhibitor].
In the case of Fc1ccc(C(c2nnc(-c3ccccc3)o2)N2CCN(c3ccccc3)CC2)c(Cl)c1 (stereo not given), the IkBa stabilization activation is reported as inconclusive: 1.27% [signal inhibitor].
For CCOc1ccc(-n2c(SCC(=O)Nc3ccc4c(c3)OCO4)nc3c(c2=O)SCC3)cc1, the Potency was inconclusive: 5.01 µM [falling, full curve].
In the case of CC(C)C(=O)Nc1c(C(=O)N2CCN(c3ccccc3F)CC2)oc2ccccc12, the IkBa stabilization activation is reported as inconclusive: 5.72% [signal inhibitor].
In the case of Cc1ccc(C)c(C(=N)c2ccccc2Cc2ccccc2)c1, the IkBa stabilization activation is reported as inactive: -0.0723% [at 11.4 µM, scaled: untreated 0%, proteasome inhibitor 100%].
With CCOC(=O)c1nnc(-c2ccccc2)o1 the “IkBa stabilization activation” value was inactive: 12%.
For Cc1ccc(-c2nc3sc(CCNC(=O)c4ccco4)c(C)n3n2)cc1, the IkBa stabilization activation was inconclusive: -0.22% [signal inhibitor].
In the case of CCc1ccc(OCC(=O)Nc2c(C(=O)c3ccccc3)oc3ccccc23)cc1, the “IkBa stabilization activation” value is reported as inactive: 0.309%.
In the case of Cc1ccccc1NC(=O)CCc1c(C)nc2c(c1C)c(=O)n(C)c(=O)n2C, the IkBa stabilization activation is reported as inconclusive: 1.46% [signal inhibitor].
In the case of CCCN(C(=O)Cn1cnc2sc(C)c(S(=O)(=O)N3CCN(c4ncccn4)CC3)c2c1=O)c1cccc(C)c1, the “IkBa stabilization activation” value is reported as inactive: -2.67%.
In the case of CS(=O)(=O)N1CCCC(c2nc(-c3ccc(S(=O)(=O)NCc4ccccc4)cc3)no2)C1 (stereo not given), the IkBa stabilization activation is reported as inconclusive: 17.6% [signal inhibitor].
For COc1cccc(NC(=O)c2nnn(Cc3cccc(C(F)(F)F)c3)c2N)c1, the “IkBa stabilization activation” value was inactive: 0.543%.
With Cc1csc(NC(=O)CSc2nnc(-c3ccoc3C)n2CCc2ccccc2)n1 the IkBa stabilization activation was inconclusive: 1.22% [signal inhibitor].
With Cc1cccc(CN2C(=O)c3ccccc3S(=O)(=O)c3ccc(C(=O)N4CCCC4)cc32)c1 the IkBa stabilization activation was inconclusive: -0.965% [signal inhibitor].
With CNc1nnc(-c2cc3ccccc3oc2=O)s1 the IkBa stabilization activation was inconclusive: 12.5% [signal inhibitor].
With Cc1oc(-c2ccccc2Cl)nc1CS(=O)(=O)CC(=O)NC(C)CCc1ccccc1 (stereo not given) the IkBa stabilization activation was inconclusive: 0.729% [signal inhibitor].
In the case of C[C@@H]1C(=O)O[C@@H]2C[C@@]34[C@H]5C[C@@H](C(C)(C)C)[C@@]36[C@@H](OC(=O)[C@@H]6O)O[C@]4(C(=O)O5)[C@@]12O, the IkBa stabilization activation is reported as inactive: 1.05% [at 11.4 µM, scaled: untreated 0%, proteasome inhibitor 100%].
For COc1ccc(C(=O)Nc2nc3nc(C)c(Cl)c(=O)n3[nH]2)cc1, the IkBa stabilization activation was inconclusive: 2.3% [signal inhibitor].
With CCOC(=O)c1ccc(NC(=O)c2nsc3ccccc23)cc1 the Potency was inconclusive: 1.26 µM [signal inhibitor, full curve].
For COc1ccccc1NC(=O)c1ccccc1-c1nc(-c2ccccc2OC)no1, the IkBa stabilization activation was inconclusive: 3.27% [signal inhibitor].
With CN1CCc2nc3sc(C(=O)Nc4c(F)cccc4F)c(N)c3cc2C1 the IkBa stabilization activation was inconclusive: 16.2% [signal inhibitor].
In the case of Cc1ccc(-c2cnc(NCc3c(F)cccc3Cl)n2C)cc1, the IkBa stabilization activation is reported as inconclusive: 0.621% [signal inhibitor].
For O=C(NCc1cccs1)c1cc2c(s1)-c1ccccc1OC2, the IkBa stabilization activation was inconclusive: 4.68% [signal inhibitor].
In the case of CCOC(=O)c1cc(S(=O)(=O)N2CCN(c3cc(Cl)ccc3C)CC2)[nH]n1, the IkBa stabilization activation is reported as inconclusive: 3.7% [signal inhibitor].
With COc1ccccc1-c1cc(C(F)(F)F)nc(S(=O)(=O)CCCC(=O)NC(C)C)n1 the “IkBa stabilization activation” value was inactive: 1.56%.
With Cc1ccc(C)c2sc(N3CCN(C(=O)c4ccco4)CC3)nc12 the “IkBa stabilization activation” value was inactive: -1.23%.
In the case of Cc1ccc(NC(=O)Cn2ncc3c4ccccc4n(Cc4ccccc4)c3c2=O)cc1Cl, the IkBa stabilization activation is reported as inconclusive: 1.6% [signal inhibitor].
With Cc1cccc(CNc2ncnc3ccc(-c4ccoc4)cc23)c1 the IkBa stabilization activation was inactive: -4.29% [at 11.4 µM, scaled: untreated 0%, proteasome inhibitor 100%].
With O=C(O)c1ccc(Cl)cc1Cl the “IkBa stabilization activation” value was inactive: -0.0867%.
In the case of Cc1cc(C)cc(N(CCC#N)C(=O)CSc2nc3nc(C)cc(C)n3n2)c1, the “IkBa stabilization activation” value is reported as inactive: 0.62%.
With Cc1cccc(Cn2c(-c3cccs3)nc3ccccc32)c1 the IkBa stabilization activation was inconclusive: 17% [signal inhibitor].
In the case of CCCc1nc(NCc2ccco2)c(C#N)c2c1COC(C)(C)C2, the “IkBa stabilization activation” value is reported as inactive: -2.65%.
In the case of Cc1cccn2c(=O)c3cc(C#N)c(=O)n(Cc4cccnc4)c3nc12, the “IkBa stabilization activation” value is reported as inactive: 0.516%.
For NC(=O)Cn1c(=O)n(-c2ccc(F)c(Cl)c2)c(=O)c2sc3ccccc3c21, the IkBa stabilization activation was inconclusive: 18.2% [signal inhibitor].
For CCc1nc(SCc2cc(=O)c3cc(F)ccc3[nH]2)n[nH]1, the “IkBa stabilization activation” value was inactive: -0.595%.
With COc1cccc(CNC(=O)CSc2nc3ccccc3nc2Cc2ccccc2)c1 the “IkBa stabilization activation” value was inactive: -1.08%.
In the case of Cc1ccccc1NC(=O)c1c(C)oc2ccc(O)c(CN3CCCC(C)C3)c12 (stereo not given), the IkBa stabilization activation is reported as inconclusive: 1.04% [signal inhibitor].
Potency is read from the fitted curve at half-maximal effect.
